Structures can show the parent of a compound that is named as a salt. Single values are uncertain, as repeats are few or missing. Where a SMILES comes first, the peptide text is derived from it. [ ]: non-standard residue; d: D form. The star is where a group is joined. Dolaproine = CO[C@@H]([C@@H]1CCCN1)[C@@H](C)C(=O)O; Dil = CC[C@H](C)[C@H](NC)[C@@H](CC(=O)O)OC; X1 = C[C@@H](N*)[C@@H](O)c1ccccc1; NMeV = CN[C@H](C(=O)O)C(C)C
Columns and labels:
SUDHL6 parental = test: estimated IC50 (cell viability); higher = less potent
[1] = tested on: SUDHL6 venetoclax-resistant; test: as above
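Note: compound screen comparing venetoclax-resistant SUDHL6, derived by months of escalating venetoclax exposure, with its matched parental line, IC50 from one-site nonlinear dose–response fit, geometric mean for duplicated compounds.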

SMILES | estimated IC50 (SUDHL6 parental) [µM] | estimated IC50 [1] [µM]
CN1CCN(c2ccc(C(=O)Nc3n[nH]c4ccc(Cc5cc(F)cc(F)c5)cc34)c(NC3CCOCC3)c2)CC1 [Entrectinib (RXDX-101)] | 6.94 | 4.11
CO[C@H]1C[C@@H]2CC[C@@H](C)[C@@](O)(O2)C(=O)C(=O)N2CCCC[C@H]2C(=O)O[C@H]([C@H](C)C[C@@H]2CC[C@@H](OCCO)[C@H](OC)C2)CC(=O)[C@H](C)/C=C(\C)[C@@H](O)[C@@H](OC)C(=O)[C@H](C)C[C@H](C)/C=C/C=C/C=C/1C [Everolimus (RAD001)] | 2.38 | 1.31
CO[C@H]1C[C@@H]2CC[C@@H](C)[C@@](O)(O2)C(=O)C(=O)N2CCCC[C@H]2C(=O)O[C@H]([C@H](C)C[C@@H]2CC[C@@H](OCCO)[C@H](OC)C2)CC(=O)[C@H](C)/C=C(\C)[C@@H](O)[C@@H](OC)C(=O)[C@H](C)C[C@H](C)/C=C/C=C/C=C/1C [Everolimus] | > 10 | 4.89
Cc1cc([N+](=O)[O-])ccc1NS(=O)(=O)c1cc(Cl)ccc1Cl [FH535] | 7.43 | 2.67
CCn1c(=O)c(-c2ccc(Cl)cc2Cl)cc2cnc(Nc3ccc(N4CCNCC4)c(F)c3)nc21 [FRAX486] | 6.71 | 2.68
CCCCCCCCc1ccc(CCC(N)(CO)CO)cc1 [Fingolimod (FTY720) HCl] | > 10 | 3.2
Nc1nc(F)nc2c1ncn2[C@@H]1O[C@H](COP(=O)(O)O)[C@@H](O)[C@@H]1O [Fludarabine phosphate] | 3.2 | 1.74
C=C[C@@]1(C)CC(=O)[C@]2(O)[C@@]3(C)[C@@H](O)CCC(C)(C)[C@@H]3[C@H](O)[C@H](OC(C)=O)[C@@]2(C)O1 [Forskolin] | > 10 | 2.25
CC(C)n1ncnc1-c1cn2c(n1)-c1ccc(O[C@@H](C)C(N)=O)cc1OCC2 [GDC-0326] | 8.04 | 0.94
C(#Cc1nc2ncccc2nc1OCCN1CCCC1)c1ccccc1 [GK921] | 0.87 | 0.57
CCCc1cc(C)[nH]c(=O)c1CNC(=O)c1cc(-c2ccnc(N3CCN(C)CC3)c2)cc2c1cnn2C(C)C [GSK343] | 6.13 | 2.86
O=C(O)c1cc(O)c(O)c(O)c1 [Gallic acid] | 7.12 | 4.27
Nc1ccn([C@@H]2O[C@H](CO)[C@@H](O)C2(F)F)c(=O)n1 [Gemcitabine] | 2 | 0.45
O=S(=O)(NCCNC/C=C/c1ccc(Br)cc1)c1cccc2cnccc12 [H 89 dihydrochloride] | 9.07 | 1.8
COc1cc(N2CCC(N3CCN(C)CC3)CC2)ccc1Nc1ncc(Cl)c(-c2c[nH]c3ccccc23)n1 [HG-14-10-04] | 7.3 | 4.1
N#Cc1c2nc3ccccc3nc2n2ccc(NC(=O)c3cccs3)cc12 [HI-TOPK-032] | 7.91 | 2.87
COc1ccc(S(=O)(=O)/N=C2\C=CC=C\C2=C/C=C2C=CN(O)C=C2)cc1 [HMN-176] | 0.7 | 0.4
CCOC(=O)c1cnc2ccc(-c3cncc(NS(=O)(=O)c4ccccc4)c3)cn12 [HS-173] | 0.53 | 0.24
CCS(=O)(=O)Nc1ccc2c(c1)/C(=C(/Nc1ccc(CN3CCCCC3)cc1)c1ccccc1)C(=O)N2 [Hesperadin] | 5.05 | 0.94
COc1cc2c(cc1-c1c(C)noc1C)ncc1[nH]c(=O)n([C@H](C)c3ccccn3)c12 [I-BET151] | > 10 | 2.8

SMILES | estimated IC50 (SUDHL6 parental) [µM] | estimated IC50 [1] [µM]
O=C(c1ccc(Nc2nccc(-c3cc4ccccc4s3)n2)cc1)N1CCC(N2CCCC2)CC1 [IKK-16 (IKK Inhibitor VII)] | 5.22 | 2.28
C[C@H](NC(=O)c1c(N)nn2cccnc12)c1cc2cccc(C#Cc3cnn(C)c3)c2c(=O)n1-c1ccccc1 [IPI-549] | 5.58 | 2.56
O=C(Cn1nnc(-c2ccncc2)c1-c1ccccc1)Nc1ccc(-c2ccccc2)cn1 [IWP-O1] | 5.73 | 2.71
CC[C@H](Nc1ncnc2[nH]cnc12)c1nc2cccc(F)c2c(=O)n1-c1ccccc1 [Idelalisib (CAL-101, GS-1101)] | > 10 | 3.1
CC(C)C[C@H](NC(=O)CNC(=O)c1cc(Cl)ccc1Cl)B(O)O [Ixazomib (MLN2238)] | 0.06 | 0.04
Clc1ccc(NN=C(c2ccccc2)c2ccccn2)nc1 [JIB-04] | 0.94 | 0.6
Cc1cc(NC(=O)c2cccc(NC(=O)/C=C/CN(C)C)c2)ccc1Nc1nccc(-c2cccnc2)n1 [JNK-IN-8] | 8.44 | 3.73
COCCNC1CCC(Nc2cc(-c3csc(NCC4(C#N)CCOCC4)n3)c(Cl)cn2)CC1 (stereo not drawn) [JSH-150] | 0.35 | 0.1
CC(C)CNc1ccnc(NCc2csc(-c3ccccc3)n2)n1 [KHS101 hydrochloride] | 4 | 2.2
O=C(Cc1ccc(-c2ccc(OCCN3CCOCC3)cc2)cn1)NCc1ccccc1 [KX2-391] | 0.105 | 0.058
COc1cc(C(=O)N2CCC(N3CCN(C)CC3)CC2)ccc1Nc1ncc2c(n1)N(C)c1ccccc1C(=O)N2C [LRRK2-IN-1] | 8.7 | 5.4
Oc1ccc2c(c1)CC[C@H](c1ccccc1)[C@@H]2c1ccc(OCCN2CCCC2)cc1 [Lasofoxifene Tartrate] | > 10 | 6.63
CCC[C@H](Nc1nc(-c2ccc(NC(=O)NCC)c(OC)c2)ncc1C)c1cccnc1 [Lexibulin (CYT997)] | 0.075 | 0.036
C=CC(C)(C)c1cc(/C=C/C(=O)c2ccc(O)cc2)c(OC)cc1O [Licochalcone A] | 4.57 | 2.12
CCNC(=O)c1noc(-c2cc(C(C)C)c(O)cc2O)c1-c1ccc(CN2CCOCC2)cc1 [Luminespib (AUY-922, NVP-AUY922)] | 0.06 | 0.04
Cn1cc(/C=C/C(=O)c2cccc(F)c2)cc1/C=C/C(=O)NO [MC 1568] | 7.6 | 4.15
CCC1C/C(=C\c2cccnc2)C(=O)/C(=C/c2cccnc2)C1 (stereo not drawn) [MCB-613] | 1.64 | 0.68
NC1(c2ccc(-c3nc4ccn5c(=O)[nH]nc5c4cc3-c3ccccc3)cc2)CCC1 [MK-2206 2HCl] | > 10 | 1.9
O=C(O)Cn1nnc(-c2cc(N3CCC(Oc4cc(F)ccc4Br)CC3)no2)n1 [MK-8245] | > 10 | 4.79
CN(C(=O)CNC(=O)/C=C/c1cccc(Cl)c1)C1CCS(=O)(=O)CC1 [ML264] | > 10 | 1.78

SMILES | estimated IC50 (SUDHL6 parental) [µM] | estimated IC50 [1] [µM]
Cc1ccc(S(=O)(=O)Nc2cc(C(F)(F)F)ccc2C(=O)Nc2nc(-c3ccccc3)cs2)cc1 [ML364] | > 10 | 3.42
Cc1ncc(CCCN(C)C)cc1Nc1ncc2c(n1)-c1ccc(C(F)(F)F)cc1NC(=S)C2 [MLN0905] | 0.495 | 0.087
CC(C)Oc1ccc(-c2c[nH]cc2CN(C)CCN)cc1 [MS023] | 9.79 | 6.54
CS(=O)(=O)Nc1cc(-c2ccc3ncnc(Nc4ccc(F)c(Cl)c4)c3c2)cnc1Cl [MTX-211] | 0.9 | 0.2
O=C(c1ccccc1O)c1[nH]c(Cl)c(Cl)c1-n1c(C(=O)c2ccccc2O)cc(Cl)c1Cl [Marinopyrrole A (Maritoclax)] | 1.9 | 1.1
COC(=O)Nc1nc2cc(C(=O)c3ccccc3)ccc2[nH]1 [Mebendazole] | 6.32 | 3.77
CN(C)c1ccc2nc3ccc(=[N+](C)C)cc-3sc2c1 [Methylene Blue] | 1.95 | 0.86
Nc1ncccc1-c1nc2ccc(-c3ccccc3)nc2n1-c1ccc(C2(N)CCC2)cc1 [Miransertib (ARQ 092) HCl] | 9.32 | 1.03
O=C1c2c(O)ccc(O)c2C(=O)c2c(NCCNCCO)ccc(NCCNCCO)c21 [Mitoxantrone 2HCl] | 3.08 | 1.19
CCS(=O)(=O)Nc1ccc(Oc2ccc(F)cc2F)c(-c2cn(C)c(=O)c3[nH]ccc23)c1 [Mivebresib(ABBV-075)] | 0.203 | 0.07
CC[C@H](C)[C@@H]([C@@H](CC(=O)N1CCC[C@H]1[C@H](OC)[C@@H](C)C(=O)N[C@H](C)[C@@H](O)c1ccccc1)OC)N(C)C(=O)[C@@H](NC(=O)[C@@H](NC)C(C)C)C(C)C [Monomethyl auristatin E (MMAE)] (H-[NMeV]V[Dil][Dolaproine]-X1) | 0.0041 | 0.0008
CC(C)=CCc1c(-c2ccc(O)cc2O)oc2c3c(cc(O)c2c1=O)OC(C)(C)C=C3 [Morusin] | 3.23 | 1.76
FC(F)(F)c1ccc(/C=C/c2nc(COc3ccc(CCCCn4ccnn4)cc3)co2)cc1 [Mubritinib (TAK 165)] | 0.042 | 0.028
FC(F)(F)c1ccc(/C=C/c2nc(COc3ccc(CCCCn4ccnn4)cc3)co2)cc1 [Mubritinib] | > 10 | 2.87
O=c1cc(-c2ccc([N+](=O)[O-])cc2)nc2c(-c3ccc(Cl)cc3)c(Cc3ccccc3)[nH]n12 [NAV-2729] | 5.91 | 3.86
Cc1c(O)cccc1C(=O)N[C@@H](CSc1ccccc1)[C@H](O)CN1C[C@H]2CCCC[C@H]2C[C@H]1C(=O)NC(C)(C)C [Nelfinavir Mesylate] | > 10 | 2.8
COC(=O)Nc1nc2cc(C(=O)c3cccs3)ccc2[nH]1 [Nocodazole] | 0.521 | 0.194
O=C1C2=C(CCN(Cc3ccccc3)C2)N2CCN=C2N1Cc1ccc(F)cc1F [ONC206] | 0.87 | 0.34
Cc1cc(O)c(-c2ccc([C@@H](C)CN)cc2)c2c1[nH]c(=O)c1sccc12 [OTS514 hydrochloride] | 0.074 | 0.042
